Molecular target: G-actin in human serum

B1: hyperactive/actin-resistant version mc/arDNase (+6), substitutions E13R/T14K/H44R/N74K/T205K/A114R (protein)
chain: LKIAAFNIQTFGRKKMSNATLVSYIVQILSRYDIALVQEVRDSRLTAVGKLLDNLNQDAPDTYHYVVSEPLGRKSYKERYLFVYRPDQVSAVDSYYYDDGCEPCGNDTFNREPRIVRFFSRFTEVREFAIVPLHAAPGDAVAEIDALYDVYLDVQEKWGLEDVMLMGDFNAGCSYVRPSQWSSIRLWTSPTFQWLIPDSADTTAKPTHCAYDRIVVAGMLLRGAVVPDSALPFNFQAAYGLSDQLAQAISDHYPVEVMLK
Average T50 (min) 50% DNA hydrolysis in human serum: 1 min | Time T50 (min) 50% DNA hydrolysis in human serum: 0.5; 1; 1.5

From patent US20090047272
